Experimental data: the supplement of paper PMC7125110
± gives the standard error. This sample is rich in variants without activity.

B1: glmS ribozyme (parent)
chain: AUAAAAGCGCCAGAACUACAGAAAUGUAGUUGACGAGGAGGAGGUUUAUCGAAUUUUCGGCGGAUGCCUCCAAA

How the values were obtained:
Details in all cases: with glucosamine-6-phosphate
glucosamine-6-phosphate [1] = variants of: B1; test: self-cleavage kobs at 640 uM GlcN6P; higher = faster cleavage; RNA array
Procedure, shortened: (§1)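 In situ transcription by E. coli RNA polymerase produced barcoded ribozyme variants on sequenced MiSeq chips, and a hybridised Cy3 probe tracked them at 37 °C. Glucosamine-6-phosphate was flowed in at 40 μM to 10 mM in HEPES/KCl/Mg(OAc)2 buffer. kcat and KM were taken from weighted Michaelis–Menten fits of kobs values from exponential decay fits.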

glucosamine-6-phosphate [2] = variants of: B1; test: self-cleavage kobs at 2500 uM GlcN6P; higher = faster cleavage; RNA array
Procedure, shortened: as §1

glucosamine-6-phosphate [3] = variants of: B1; test: self-cleavage kobs at 160 uM GlcN6P; higher = faster cleavage; RNA array
Procedure, shortened: as §1

glucosamine-6-phosphate [4] = variants of: B1; test: self-cleavage kobs at 10000 uM GlcN6P; higher = faster cleavage; RNA array
Procedure, shortened: as §1

Variant	self-cleavage kobs at 640 uM GlcN6P (glucosamine-6-phosphate [1])	self-cleavage kobs at 2500 uM GlcN6P (glucosamine-6-phosphate [2])	self-cleavage kobs at 160 uM GlcN6P (glucosamine-6-phosphate [3])	self-cleavage kobs at 10000 uM GlcN6P (glucosamine-6-phosphate [4])
A36U A39U U69A	< 1e-05 s⁻¹	< 1e-05 s⁻¹		
A36U A48C C67G	< 1e-05 s⁻¹			
A36U A52G C71A	< 1e-05 s⁻¹		< 1e-05 s⁻¹	
A36U A53C	< 1e-05 s⁻¹		< 1e-05 s⁻¹	< 1e-05 s⁻¹
A36U C58A G59U	< 1e-05 s⁻¹			
A36U G41A A48U	< 1e-05 s⁻¹			
A36U G43A	< 1e-05 s⁻¹	< 1e-05 s⁻¹		< 1e-05 s⁻¹
A36U G43A C58U	< 1e-05 s⁻¹	< 1e-05 s⁻¹	< 1e-05 s⁻¹	
A36U G44A C67U	< 1e-05 s⁻¹	< 1e-05 s⁻¹		
A36U G51C	< 1e-05 s⁻¹		< 1e-05 s⁻¹	< 1e-05 s⁻¹
A36U G60U	< 1e-05 s⁻¹	< 1e-05 s⁻¹		< 1e-05 s⁻¹
A36U U45A G63U	< 1e-05 s⁻¹	< 1e-05 s⁻¹		
A36U U46C C68G	< 1e-05 s⁻¹	< 1e-05 s⁻¹		
A36U U47A G62U	< 1e-05 s⁻¹			
A36U U55C	< 1e-05 s⁻¹		< 1e-05 s⁻¹	
A36U U56G U65C	< 1e-05 s⁻¹			
G37A A48C G59A	< 1e-05 s⁻¹			
G37A A53C C71U	3.79e-05 ± 1.4e-05 s⁻¹	6.98e-05 ± 1.5e-05 s⁻¹		
G37A A53U C61U	< 1e-05 s⁻¹	< 1e-05 s⁻¹	< 1e-05 s⁻¹	
G37A G38U A53G	< 1e-05 s⁻¹			

Variant	self-cleavage kobs at 640 uM GlcN6P (glucosamine-6-phosphate [1])	self-cleavage kobs at 2500 uM GlcN6P (glucosamine-6-phosphate [2])	self-cleavage kobs at 160 uM GlcN6P (glucosamine-6-phosphate [3])	self-cleavage kobs at 10000 uM GlcN6P (glucosamine-6-phosphate [4])
G37A G40C C50G	< 1e-05 s⁻¹	< 1e-05 s⁻¹		
G37A G43C A64U	< 1e-05 s⁻¹			
G37A G62U	< 1e-05 s⁻¹	< 1e-05 s⁻¹	< 1e-05 s⁻¹	< 1e-05 s⁻¹
G37A U46G G63U	< 1e-05 s⁻¹			< 1e-05 s⁻¹
G37A U54C C70U	0.000626 ± 0.00016 s⁻¹	0.00117 ± 0.00025 s⁻¹		
G37C A48U A52G	< 1e-05 s⁻¹	< 1e-05 s⁻¹		
G37C G38A G51A	< 1e-05 s⁻¹			
G37C G40U U46G G63U	< 1e-05 s⁻¹			< 1e-05 s⁻¹
G37C G41C	< 1e-05 s⁻¹	< 1e-05 s⁻¹	< 1e-05 s⁻¹	
G37C G41U C67U	< 1e-05 s⁻¹		< 1e-05 s⁻¹	
G37C G43C G51A	< 1e-05 s⁻¹	< 1e-05 s⁻¹		
G37C G44A U57C G66C	< 1e-05 s⁻¹		< 1e-05 s⁻¹	
G37C U55G C67U	< 1e-05 s⁻¹			
G37C U56A U69G C70U	< 1e-05 s⁻¹			
G37U A42C C50A A64U	< 1e-05 s⁻¹			
G37U A48U A52U	< 1e-05 s⁻¹	< 1e-05 s⁻¹		
G37U G40U C61U C68U	< 1e-05 s⁻¹			< 1e-05 s⁻¹
G37U G44A	< 1e-05 s⁻¹	< 1e-05 s⁻¹	< 1e-05 s⁻¹	
G37U U46A G60A	< 1e-05 s⁻¹			
G38A A39C G40U G43A U49G U54C	< 1e-05 s⁻¹	< 1e-05 s⁻¹	< 1e-05 s⁻¹	

Variant	self-cleavage kobs at 640 uM GlcN6P (glucosamine-6-phosphate [1])	self-cleavage kobs at 2500 uM GlcN6P (glucosamine-6-phosphate [2])	self-cleavage kobs at 160 uM GlcN6P (glucosamine-6-phosphate [3])	self-cleavage kobs at 10000 uM GlcN6P (glucosamine-6-phosphate [4])
G38A A39C G44U U65G C70G	< 1e-05 s⁻¹			
G38A A42C U49C	< 1e-05 s⁻¹	< 1e-05 s⁻¹		
G38A C61U C68U	< 1e-05 s⁻¹			
G38A G40U G43A A52C	< 1e-05 s⁻¹			
G38A G41A U45C A52G	< 1e-05 s⁻¹		< 1e-05 s⁻¹	
G38A G41U A42C U45C U54G C68G	< 1e-05 s⁻¹			
G38A G44C C67U C71A	< 1e-05 s⁻¹	< 1e-05 s⁻¹		
G38A G44C U47A A48C G63U	< 1e-05 s⁻¹			
G38A G44U C50A	< 1e-05 s⁻¹			
G38A G60C	< 1e-05 s⁻¹	< 1e-05 s⁻¹		< 1e-05 s⁻¹
G38A U45G U46C C50G A52C	< 1e-05 s⁻¹	< 1e-05 s⁻¹		
G38C A64U	< 1e-05 s⁻¹	< 1e-05 s⁻¹	< 1e-05 s⁻¹	< 1e-05 s⁻¹
G38C G41A C58A	< 1e-05 s⁻¹	< 1e-05 s⁻¹	< 1e-05 s⁻¹	
G38C G43U A64C	< 1e-05 s⁻¹	< 1e-05 s⁻¹		
G38C G44C A64G	< 1e-05 s⁻¹			
G38C G60U U65C	< 1e-05 s⁻¹	< 1e-05 s⁻¹		< 1e-05 s⁻¹
G38C G63A	< 1e-05 s⁻¹	< 1e-05 s⁻¹	< 1e-05 s⁻¹	
G38C G66C	< 1e-05 s⁻¹	< 1e-05 s⁻¹	< 1e-05 s⁻¹	
G38C G66C C70U	< 1e-05 s⁻¹			
